Experimental data reported in ChEMBL document CHEMBL5308541, “MAIP: An Open-Source Tool to Enrich High-Throughput Screening Output and Identify Novel, Druglike Molecules with Antimalarial Activity” (ACS Med Chem Lett, 2023).
In all, about 150,000 compounds went through this assay and about 540 (0.36%) showed an effect of 50% or more. The list shows a part of the results.

tested on: Plasmodium falciparum; experiment: Primary screen in NF54 nanoGlo assay, in single point, at 2uM, 72h; a lower Z score goes with more inhibition; type: functional, Erythrocyte; details: timepoint 72 hour

SMILES	% Inhibition	Z score
Cn1cnnc1-c1ccnc(NCc2cnc(NC(=O)OC(C)(C)C)s2)c1	-10%	1.48
Cc1nc(CNC(=O)c2cccc(CO)c2)sc1C	-7%	1.12
CC1CCN(C(=O)Nc2cc(N(C)C)ncn2)CC(C)C1 (stereo unspecified)	-15%	2.95
C[C@H]1CN(C(=O)c2cccc(-c3cn(C)nc3-c3ccccc3)c2)CCN1	-10%	1.74
Cc1cc(N)nc(NCCc2ccc(Cl)cc2)n1	18%	-3.51
COc1ccc2c(C)cc(Nc3cc(C)c(Cl)cc3OC)nc2c1	-8%	1.6
O=C(c1ccc2[nH]cnc2c1)N1CCN(c2nc(-c3cccnc3)nc3ccccc23)CC1	20%	-3.48
O=C1CCCNC(=O)c2cccc(c2)-c2cccc(c2)COC2CNCC2N1 (stereo unspecified)	-8%	1.37
Cc1cc(NCc2cc(O[C@H]3CCNC3)ccn2)c(C#N)cn1	-2%	0.27
O=C(c1ccc(NCCN2CCN(c3cccc(C(F)(F)F)c3)CC2)nc1)N1CCCC1	-9%	1.37
Fc1cnc(N[C@H]2CCCN(Cc3cccs3)C2)nc1N1CCOCC1	11%	-2.47
CN1CCC(CNC2CC3CC(C2)N(C(=O)OC(C)(C)C)C3)CC1 (stereo unspecified)	72%	-15.46
O=S1(=O)CCCN1c1cccc(CNc2ncnc3cc(F)c(F)cc23)c1	-7%	1.31
OC[C@H]1CNCCC12CCN(CCN1CCCCC1)CC2	8%	-1.36
Nc1ncc(-c2c(-c3ccccc3)ncn2Cc2nc3c(s2)CCCC3)cn1	-2%	0.28
C[C@H]1CN(CCO)CCN1C(=O)c1cccc2ncccc12	-3%	0.65
OC[C@H]1CCCN(c2cc(NCc3ccc(-n4ccnc4)c(F)c3)ncn2)C1	9%	-1.64
Cc1ccc2[nH]c(C(=O)NC[C@@H]3C[C@H](F)CN3c3ccnc(N(C)C)n3)cc2c1	4%	-0.82
CC(C)N1CCN(c2ccc(C(=O)Nc3cncnc3N3CCCC3)cc2)CC1	3%	-0.56
Cc1onc(OC(F)F)c1NC(=O)[C@@H]1CCc2ccc(F)cc2O1	1%	-0.24
Nc1ccc2nc(NCCc3ccc(F)cc3)oc2c1	-9%	1.86

SMILES	% Inhibition	Z score
COCC(CCCNC(=O)OC(C)(C)C)NC1CCN(c2ccc(C(F)(F)F)cc2)C1 (stereo unspecified)	-9%	1.88
CN(C)C(=O)NCC(=O)N1CC(O)C(Cc2ccc3ccccc3n2)C1 (stereo unspecified)	-4%	0.75
NC(CN1CCOCC1)=NOCc1cc2ccccc2s1	-1%	0.28
COc1cccc(-c2cc(=O)n3nc(C)c(-c4ccccc4)c3[nH]2)c1	0%	-0.07
CCCn1c(=O)cc(Nc2cccc(F)c2)c2ccccc21	-18%	2.66
CN1CCN(C2CCN(C(=O)c3nc4cc(F)ccc4[nH]3)CC2CCCO)CC1 (stereo unspecified)	-1%	0.12
c1nc(NCC2CC2)cc(NC2CCN(C[C@H]3CCOC3)CC2)n1	8%	-1.34
c1cc(CN2CCCN(C3CCCCC3)CC2)c2[nH]ccc2c1	-8%	1.37
COC(OC)c1ccc(F)c(CNC2CCC3(CC2)OCCO3)c1	-5%	0.82
Cc1oc(-c2cccc(NC(=O)CCc3cccnc3)c2)nc1CNC(=O)c1cc2cc(F)ccc2[nH]1	-11%	1.9
CCN1CCC[C@H](CN(C)C(=O)c2cccc(-c3cc(O)nc(N)n3)c2)C1	1%	-0.17
CC1CCC(C)N1CCN1CCN(C(=O)C2COCCN2)CC1 (stereo unspecified)	-2%	0.32
O=C(C1CCC1)N(CCN1CCCC1)[C@H]1CCCN(Cc2ccc3cc[nH]c3c2)C1	10%	-1.81
O=C(NC1(c2ccc3c(c2)OCCO3)CC1)c1cnn2c1CCC2	1%	-0.17
COC(=O)c1ccc(NCc2nnc(-c3ccccc3)n2C)cc1F	-15%	2.32
Cc1ccc2nc(NC[C@H]3CCN(C4CC4)C3)cc(C)c2c1	55%	-8.34
Cc1cc(O)c2cc(-c3cccc(C(=O)N[C@H]4CCC(=O)N(C)C4)c3)ccc2n1	3%	-0.48
COCCN1CCN(C(=O)c2cccc(-c3cnn4cccnc34)c2)CC1	-6%	1.04
CCN1CCN(c2ccc(CNc3ncnc4[nH]ncc34)cn2)CC1	-3%	0.71
CN(c1ccc(-c2ccncc2)cn1)[C@H]1CCCN(c2cccnn2)C1	-8%	1.46
O=C(C[C@H]1COCCN1)NC1CCN(Cc2ccc(-c3ccccc3)cc2)CC1	3%	-0.5

SMILES	% Inhibition	Z score
O=C(NCc1ccc(CN2CCCC2)cc1)c1cc(-c2ccccc2)[nH]n1	-7%	1.07
FC(F)(F)c1ccc(N2CCC[C@H](NC3CCN(Cc4ccco4)CC3)C2)nc1	25%	-4.29
C[C@@H](C(=O)NC1CCCC1)N1CCC(c2nc(-c3ccncc3)cs2)CC1	-2%	0.46
CCCN1CCC(Nc2nccc(OCc3ccccc3)n2)CC1	-5%	0.87
Cc1ccc([C@@H]2CS(=O)(=O)CCN2C(=O)c2cccnc2)o1	-6%	0.96
CCC[C@@H](CC(=O)O)NC(=O)N(C)Cc1cc(-c2ccccc2)[nH]n1	3%	-0.59
CC(C)Oc1ccc(Cc2noc(C3CCN(C4CC4)CC3)n2)cc1	-2%	0.24
CN(C)c1ncc(CN2CCC[C@H](CCC(=O)Nc3ccccc3F)C2)s1	-1%	0.1
O=C(c1cccc(NC2CCCN(Cc3ccccc3)C2)c1)N1CCCCC1CCO (stereo unspecified)	-9%	1.95
NC(=O)C1CCN(CCCNc2ncnc3ccccc23)CC1	14%	-2.8
CC(C)S(=O)(=O)c1ccc(CC(=O)NCc2nc(N(C)C)nc(N3CCCC3)n2)cc1	-10%	1.77
O=C(NCc1cnn2ccccc12)N1CCOC2(CCOCC2)CC1	-3%	0.4
COc1cccc2[nH]cc(CCN[C@H]3CCCNc4ccccc43)c12	-3%	0.48
CCn1ccnc1[C@@H]1CCCCN1C(=O)NCc1cnc(C)s1	-10%	1.69
CC1([C@H]2CCCN(c3nnnn3CCc3ccco3)C2)OCCO1	-11%	2.01
CC1NCCOC1c1ccc(-c2cnc3[nH]ccc3c2)cc1 (stereo unspecified)	4%	-0.81
O=C(NC1CC1)c1ccnc(N2CC[C@@]3(CCCN(CCC4CCCCC4)C3)C2)c1	-11%	1.94
CCO[C@@H](C)c1ccc(-c2n[nH]c(OC)n2)cc1	-3%	0.46
COc1ccc2oc(-c3noc(C4(c5ccccc5)CC4)n3)c(C)c2c1	1%	-0.09
CCn1ccc(CN2CC3COCC2CN(Cc2ccc4[nH]ccc4c2)C3)n1 (stereo unspecified)	7%	-1.08
c1cncc(-c2ccnc(N3CCCO[C@@H](CN4CCOCC4)C3)n2)c1	2%	-0.28

SMILES	% Inhibition	Z score
CC1CCN(c2ccc(C(=O)NC3CCN(C4CCN(C)CC4)CC3)cn2)CC1	26%	-3.91
CCN(CCCN1CCOCC1)c1ccc2[nH]ccc2c1	3%	-0.62
Cc1ccc(CN(CCCO)C(=O)[C@@H]2C[C@@H](O)CN2)cc1	-8%	1.72
Cc1cc(Cl)cc(Cl)c1CNC(=O)NCC1CCNCC1	-8%	1.32
COc1ccc(CN2CCN(C3CCN(c4ccc(F)cc4C)CC3)CC2=O)cc1	-3%	0.5
Cc1nc(-c2cccc(-c3ccc(C(=O)NC[C@@H]4CCCN4)cc3)c2)no1	0%	0.1
CCN1CCN(CCNC(=O)CN(C)c2nn3c(NC(C)(C)C)c(-c4cccc(F)c4)nc3s2)CC1	-8%	1.42
CN=C(NC1CC1C)N1CCC(C)(C)C1 (stereo unspecified)	-5%	1.03
CC(C)c1cc(C(=O)N2CCN(c3nsc4ccccc34)CC2)nc(N)n1	-3%	0.67
CC(C)OCc1cccc(CNC2CCN3CCCC3C2)c1 (stereo unspecified)	0%	-0.08
C[C@@H](CNC(=O)c1cccc(-c2ccc3c(=O)[nH]ccc3c2)c1)N1CCCC1	-10%	1.7
O=c1[nH]c2ccc(Nc3nnc(-c4ccc5c(c4)OCO5)o3)cc2[nH]1	-11%	2.03
Cc1nc(CCNC(=O)[C@H](C)Oc2ccc3c(c2)OCO3)nc2c1CCC2	0%	-0.07
N#CC1(NC(=O)c2ccc(-n3ccnn3)cc2)CCOCC1	-1%	0.18
NC(=O)c1ccccc1N1CCC[C@H](NCc2cccc3[nH]ccc23)C1	-2%	0.38
N#Cc1cccc(NCCCN2CCC(O)CC2)n1	-3%	0.52
CCCCN1CCCC[C@@H]1CNc1nn2c(=O)cc(-c3ccccc3)nc2s1	10%	-2.02
NC(=O)[C@]1(O)CCN(c2ccnc3ccc(Oc4ccccc4)cc23)C1	38%	-8.24
CN(C)c1nsc(/C=C/C2CCCCC2)n1	-21%	3.16
NC1CCC(NC(=O)c2ccc(-c3ccc4occc4c3)cc2)C1 (stereo unspecified)	7%	-1.46
